This is one part of the list.

Data on 55 sequences can be found in the supplement of paper PMC11417369.

The subject of this assay is PF3D7_0420300 AP2 domain 1 (GST-tagged). The experiment in a line: gcPBM binding intensity (ln(normalized median fluorescence intensity)); higher = stronger DNA binding. Put shortly:
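Binding intensity values are the highest Masliner-normalised natural-log median intensity among replicate spots of either probe orientation. The binding step lasted 1 h in 1× PBS with 1% milk, 0.2 mg/ml BSA, 0.5% salmon testes DNA and 0.03% Triton X-100, using GST-tagged P. falciparum DNA-binding domains expressed in E. coli on an Agilent 4 × 180k array of primer-extended double-stranded 36-bp intergenic genomic probes plus negative controls. Alexa488 anti-GST antibody and a 488 nm scan detected bound protein.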
For “TTAGCAACTATTACTACACACATTTGTATATAATTT [CACACA_site1591]”, the “gcPBM binding intensity (ln)” value is 9.64. For the sequence “TTTATAATATACATAACACACAATTATTATTTCTTA [CACACA_site3624]”, the “gcPBM binding intensity (ln)” value was determined as 9.26.

Take “TTATAACAAATATAGAGTACTAAAATTTTACGTTAT [XGTACX_site1410]”: the “gcPBM binding intensity (ln)” value is 9.21.

Take “TTTTTTTCCTTATCTATATATAATCAAATTTTCTAC [CACACA_negctrl_site867]”: the “gcPBM binding intensity (ln)” value turned out to be 9.05. The figure for “AACTTTTAGAAGAACACACACATATAGATTATGACC [CACACA_site6256]” is 9.86; for “TCGAACATTAACATAACACACATATATATATATATA [CACACA_site2900]” it is 9.42.

Consider “AAGGTTATTTATATATGTACTTAATATATATATATG [XGTACX_site886]”, for which the “gcPBM binding intensity (ln)” value is 9.31.

On to “TTTTATCGATATATCTGTACATATTACTTATAATAA [XGTACX_site57]”, for which the “gcPBM binding intensity (ln)” value was found to be 9.29. The figure for “TGCTATAATTTATATACACACAAATATATACTCATA [CACACA_site6111]” is 9.47; for “TATAACTATTTATAATGTACTCATGTATAATTATAT [XGTACX_site7913]” it is 9.1. The figure for “TTAATTTATTTATGCACACATATATAATTACACATA [CACACA_site4544]” is 9.36; for “TTTATATATTATATAAATATTATTATACTTTAAATA [TGCATGCA_negctrl_site236]” it is 8.73. Next, “ATGCTTTTGTCATGTGCACACACGTATATATTATAT [CACACA_site4163]”: 9.89; “ACATGTATTTATAAGAGTACATATGTGTGCATGTTT [XGTACX_site7946]”: 9.49. “AATAAATAAATATATACACACATATCTGTCTACATA [CACACA_site5708]”: the “gcPBM binding intensity (ln)” value was determined as 9.54.

In the case of “ACAAGATCTAGATACACACACATATCTCTCAATCTA [CACACA_site6453]”, the “gcPBM binding intensity (ln)” value is 9.7. The figure for “GTAAAAAAATAGCACACACACAAAAACACGCACAAA [CACACA_site6723]” is 10.2; for “GGGACAGGACGAAAAAATAAATAAATAAATAAAAAA [CACACA_negctrl_site155]” it is 8.89; for “AATAATTGAAAAACACAAAAATGATTTTCCATAAAT [CACACA_negctrl_site1555]” it is 9.09. As for “ATATATTATATAATATGTACATAATAAAATTTAAAT [XGTACX_site1900]”, the “gcPBM binding intensity (ln)” value was found to be 9.26.

Take “TTTTTATTTATATATATATATATATATTATATATAA [CACACA_negctrl_site1654]”: the “gcPBM binding intensity (ln)” value came out at 8.97.

For the sequence “CTTGTCATTGGGCACACACACATGTATAGGTTATTA [CACACA_site3058]”, the “gcPBM binding intensity (ln)” value was 9.7. Next, “GAGTAAACATATATATGTACATAAAGTTAACATTGC [XGTACX_site2225]”: 9.45; “ATTTTTTTTCATATAACACACACACTAATATAATGT [CACACA_site9226]”: 9.88. Next, “TGAACACCCACAAATACACACAAAAAAAATAAATAA [CACACA_site248]”: 9.68; “CTTATAAAAAAAAAAACATGCAACAGTAAAGAACAA [TGCATGCA_site892]”: 9.84. Next, “AAAAAAATAAGTATTGAACAATTAAGGAAAAACATG [GTGCAC_negctrl_site464]”: 9.59. Take “AACATACATAAACACACACACACACCCACAGAGACA [CACACA_site4430]”: the “gcPBM binding intensity (ln)” value was 10.4. Next, “GGTAATTTTTTTTAAATACACACTGAAATGTGAATT [CACACA_site564]”: 9.1. Consider “CATACAGATATATATACACACATACAGATAAATACA [CACACA_site4592]”, for which the “gcPBM binding intensity (ln)” value is 9.83.

In the case of “AATTGAATTTTAAAAGAAAAAAAAAAAAAAAAATAA [XGTACX_negctrl_site195]”, the “gcPBM binding intensity (ln)” value is 8.76. The figure for “TGGAGGTCAGTTCACAGTACCCAGAAACTCTACGGA [XGTACX_site4927]” is 8.97; for “TTTTTTCAATTTTTTTTAAATAAACCACAAAAAAAA [CACACA_negctrl_site1701]” it is 8.72; for “TAATGTAAAATTTAGAGTACATAAAAAATTGGATGA [XGTACX_site7225]” it is 9.24. “AAATAAAAAAAGAAACGTACATATATTGGTTTCGTC [XGTACX_site3510]”: the “gcPBM binding intensity (ln)” value turned out to be 9.43. Next, “AAACTATAATATATTACACACATATATTTTATAAGT [CACACA_site6460]”: 9.55; “AAATTATATCAATGTTGTACATATTATTTTTTTCTC [XGTACX_site5948]”: 9.36.

For “AAAAAAAAAAATATCACACACACATAAATATAAACC [CACACA_site2278]”, the “gcPBM binding intensity (ln)” value was determined as 10.2.

“TAGTATAAAATTATGTGTACACAAATATAACTTTTC [XGTACX_site5971]”: the “gcPBM binding intensity (ln)” value came out at 9.22.

With “AAAAAAAAAAAAAGGTGTACAAGTATAATTACATAA [XGTACX_site534]”, the “gcPBM binding intensity (ln)” value is 9.37.

Take “TATTTATTGTGATACTTTTATTGTTTAATGATTAAA [CACACA_negctrl_site495]”: the “gcPBM binding intensity (ln)” value turned out to be 9.18. “AAGATTAAAAATTGCACACAAAAATATATTTTCTAT [CACACA_site1305]”: the “gcPBM binding intensity (ln)” value was 9.31. On to “AAATTATATCATTTATTTTTTTATATTTTTTATATT [CACACA_negctrl_site685]”, for which the “gcPBM binding intensity (ln)” value is 9.12.

Regarding “AATTTCCTTTTTTAAAGTACACAAAAGTTCACTTTG [XGTACX_site4460]”, the “gcPBM binding intensity (ln)” value was 8.9. The figure for “TATAATTTATTAAGGGGTACATATATTTCATGATAA [XGTACX_site5141]” is 9.17; for “CAAATATAAATATATACATGCATCTATCTATATAAA [TGCATGCA_site369]” it is 9.19; for “AATCAAAAATCAAACGCATGTAGTATAATAGATAAG [TGCATGCA_site753]” it is 9.5. As for “AAATTGTAGCACCAAGCATGCTAAAAGGACATATGA [TGCATGCA_site717]”, the “gcPBM binding intensity (ln)” value came to 9.34. The figure for “TTGTTAAAAGTATCCATTCTTTATTACTTTTGTTTA [XGTACX_negctrl_site532]” is 9.22.

As for “TCGTAAACATATTGAAAAATATAAAAAGGGGTAATA [CACACA_negctrl_site619]”, the “gcPBM binding intensity (ln)” value was found to be 9.29. Next, “ATTGGGTACAAATACACACACATATATATATTAATA [CACACA_site2376]”: 9.92; “TGTACCTTATTAATATATTTAACTCGCCTTATATAC [XGTACX_negctrl_site289]”: 9.47; “TTAAGATATGTATATCGTACATGACATTAAAAATTT [XGTACX_site3352]”: 8.94. For “AATGGTATAATCAATACACACATAATATATATATTG [CACACA_site1658]”, the “gcPBM binding intensity (ln)” value came to 9.47. For “AAATAAATACACATATGTACATATTTTATTTTATTT [XGTACX_site2357]”, the “gcPBM binding intensity (ln)” value is 9.29.
